Some of the results follow. At the low end of the ranking the order means little.

This assay concerns the target T1, GST-Rok (full length) (UniProt O34857).
T1 sequence: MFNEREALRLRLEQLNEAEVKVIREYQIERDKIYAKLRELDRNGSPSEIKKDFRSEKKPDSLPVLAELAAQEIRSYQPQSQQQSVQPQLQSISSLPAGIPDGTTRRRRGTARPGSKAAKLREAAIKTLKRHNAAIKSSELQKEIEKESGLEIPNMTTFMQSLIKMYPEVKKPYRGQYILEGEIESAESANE
Kind of assay: protein binding microarray.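 Also: rank score from −0.5 (least bound) to 0.5 (best bound).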 Particulars: Rok is a gene silencer of Bacillus subtilis; high values mean tight binding; most listed sequences are background and not binding sites; double strand, one strand shown.
Turning to AAATAGTG, the binding signal was found to be 0.231 E-score.

ACTGATGG had a binding signal of -0.0587 E-score.

As to GAGTAGGC, the binding signal worked out at 0.0627 E-score.

Regarding AATCAAGA, the binding signal stood at 0.0241 E-score.

As for CGTACTCC, the binding signal was -0.121 E-score.

For GGTGGTCA, the binding signal is -0.204 E-score.

As to CAAACAGC, the binding signal was -0.228 E-score.

Consider GCGGGGTA, for which the binding signal was -0.135 E-score.

CGTAGCCC had a binding signal of -0.179 E-score.

For the sequence TGCCCCCA, the binding signal was -0.349 E-score.

The sequence CGGCGTAA had a binding signal of 0.0553 E-score.

For the sequence CCCTCGTC, the binding signal is -0.278 E-score.

As to ACGTTGGC, the binding signal is -0.214 E-score.

Turning to CACGAAAC, the binding signal stood at 0.0723 E-score.

CAATACCG showed a binding signal of 0.069 E-score.

With CAGGATGG, the binding signal was -0.143 E-score.

Take CATCTCCC: the binding signal was -0.298 E-score.

The sequence CTCTGCTA gave a binding signal of -0.0503 E-score.

Sequence ATGCCGCG gave a binding signal of -0.126 E-score.

CAATTTGG gave a binding signal of -0.0306 E-score.

In turn, CGCGCTAA displayed a binding signal of 0.304 E-score.

As for ATAAGATG, the binding signal was determined as 0.0864 E-score.

With AAGGAACA, the binding signal is -0.0856 E-score.

With ACACTATG, the binding signal came out at 0.182 E-score.

In turn, ACCCATAC had a binding signal of 0.0817 E-score.

Consider AATATGGG, for which the binding signal was 0.0683 E-score.

CCCGGGAG displayed a binding signal of -0.364 E-score.

Sequence CAAATTCG gave a binding signal of 0.0126 E-score.

ACTAAAAA returned a binding signal of 0.21 E-score.

Take CCACGTCC: the binding signal was -0.344 E-score.

CTTCTAGA came in with a binding signal of -0.0745 E-score.

Take CACCGTGG: the binding signal was -0.306 E-score.

CATCACGC came in with a binding signal of -0.199 E-score.

AGATCCCG showed a binding signal of 0.0932 E-score.

For ACAAAATG, the binding signal was 0.143 E-score.

ATCAGTGG: the binding signal was 0.0163 E-score.

As to CTCTGCCC, the binding signal is -0.365 E-score.

For the sequence AACACCCT, the binding signal was -0.115 E-score.

Take CCCTTGCC: the binding signal is -0.351 E-score.

ACCCTGTA yielded a binding signal of -0.122 E-score.

The sequence AACCCGAC yielded a binding signal of -0.181 E-score.

In turn, AGTGTCGA gave a binding signal of 0.00605 E-score.

On to ACTATAGC, for which the binding signal was 0.164 E-score.

Take AAGGGAAT: the binding signal was -0.0234 E-score.

The sequence ACCTGATA had a binding signal of 0.0403 E-score.

TAACTAAA returned a binding signal of 0.151 E-score.

GACCTCAA: the binding signal was -0.307 E-score.

GTCTGCAA yielded a binding signal of -0.191 E-score.

Consider ACGGGCCG, for which the binding signal was -0.373 E-score.

As to ATGTGGAC, the binding signal turned out to be 0.109 E-score.

On to CATACACA, for which the binding signal worked out at 0.135 E-score.

As for AAAGATGG, the binding signal is -0.0262 E-score.

In turn, GAATGCTA displayed a binding signal of 0.134 E-score.

Sequence CCTAAAAA returned a binding signal of 0.0837 E-score.

Sequence AGCCTTAA registered a binding signal of -0.038 E-score.

Regarding AGCAAACG, the binding signal is -0.0198 E-score.

CCGTTAGC showed a binding signal of -0.185 E-score.

For the sequence GACAATCC, the binding signal was -0.00593 E-score.

Sequence GATGTAAA had a binding signal of 0.159 E-score.

As to GATGGCAC, the binding signal was -0.108 E-score.

For ACATACCA, the binding signal turned out to be 0.278 E-score.

GAGGAAAA registered a binding signal of -0.155 E-score.

The sequence AATCAGAC showed a binding signal of 0.141 E-score.

In the case of CCTATGCG, the binding signal was -0.164 E-score.

Regarding ACTTAAGC, the binding signal amounted to 0.0123 E-score.

Sequence ACTCAGCA gave a binding signal of -0.0531 E-score.

For GTTAGTCA, the binding signal amounted to 0.166 E-score.

Consider ACATCCCG, for which the binding signal is -0.148 E-score.

With CCAACTTA, the binding signal was found to be 0.0981 E-score.

For the sequence CTTCATTC, the binding signal was -0.0758 E-score.

Consider AGGGATGG, for which the binding signal is -0.127 E-score.

For CAGCAAGC, the binding signal was -0.114 E-score.

Sequence CACGATCA came in with a binding signal of -0.0973 E-score.

Sequence GGCATAAC yielded a binding signal of -0.0658 E-score.

For the sequence CCCATCGA, the binding signal is -0.0661 E-score.

In the case of GATTGCGC, the binding signal is -0.11 E-score.

Sequence CAGAAGAA yielded a binding signal of 0.0939 E-score.

As for CATCTCAG, the binding signal was -0.0582 E-score.

In the case of CGCATTAC, the binding signal came out at 0.132 E-score.

Sequence GGTGGCGA showed a binding signal of -0.11 E-score.

GGCACTTA: the binding signal is -0.128 E-score.

As for GCCTGAAC, the binding signal was -0.267 E-score.

Sequence AGGCCTAT gave a binding signal of -0.0946 E-score.

CAATTGAC came in with a binding signal of 0.0882 E-score.

In the case of ATATCGTG, the binding signal is 0.177 E-score.

Take CATGGGAA: the binding signal was -0.139 E-score.

ACCCCCAC yielded a binding signal of -0.357 E-score.

AGACAACG yielded a binding signal of -0.0674 E-score.

On to ACAGGGGA, for which the binding signal was -0.28 E-score.

ATCCCTAG returned a binding signal of -0.0349 E-score.

TGGCAGAA had a binding signal of -0.00675 E-score.

Turning to ATGGCGGC, the binding signal is -0.327 E-score.

Sequence CGGGGCCC came in with a binding signal of -0.367 E-score.

The sequence ACGCCTCG registered a binding signal of -0.227 E-score.

For ACTGGAGC, the binding signal is -0.126 E-score.

Turning to CGAGTACC, the binding signal is -0.148 E-score.

For CCGTCGCA, the binding signal is -0.223 E-score.

AGAGCCAA yielded a binding signal of -0.183 E-score.

On to CACAGGAC, for which the binding signal is -0.122 E-score.

Regarding CTCCCGGC, the binding signal is -0.294 E-score.

ATAGATGG: the binding signal was determined as 0.159 E-score.

In turn, CCCGCGGA showed a binding signal of -0.214 E-score.

Regarding ACACTAGA, the binding signal came out at 0.197 E-score.

For CAAGAGTG, the binding signal worked out at 0.107 E-score.

In turn, GCAGTCGC had a binding signal of -0.196 E-score.

GCCCGTAC displayed a binding signal of -0.26 E-score.

Take AGGGCCAG: the binding signal is -0.296 E-score.

Consider ACACTGCC, for which the binding signal is -0.244 E-score.

As to ATAACATC, the binding signal was found to be 0.083 E-score.
